From PubChem BioAssay AID624296 (National Center for Advancing Translational Sciences (NCATS), 2012)
Among all 350,000 compounds or so, about 9,900 (2.8%) were called active. Inconclusive means that the source gave no clear call. Such entries were picked first, then a sample of the others. The call rests on the fitted dose curve; in most records, active means well fitted activation curve with a large enough effect; inconclusive means small, poorly fitted or top-dose-only effect; inactive means no such curve, though single readings can be large or run the other way. Potencies of inconclusive entries are left out as doubtful fits.

assay: A quantitative high throughput screen for small molecules that induce DNA re-replication in MCF 10a normal breast cells.; further: nearly all actives have a fitted effect of over 50% in size; settings: MCF 10A DNA re-replication, Hoechst nuclear intensity, 48 h; series mostly up to 46.1 µM
Potency means the concentration at half of the fitted maximal effect; tags describe the fitted curve by direction and shape.

Compound | Potency
Cc1ccc(N(CC(O)Cn2c3ccccc3c3ccccc32)S(C)(=O)=O)c(C)c1 (stereo not drawn) | inconclusive [activator, single point]
CCN1CCN(C(=O)c2ccc(Sc3ccccc3Cl)c([N+](=O)[O-])c2)CC1 | inactive
CC(=O)Nc1ccc(S(=O)(=O)N2CCN(CCc3ccccc3)CC2)cc1 | inactive
CC(NS(=O)(=O)c1ccccc1)C(=O)Nc1ccc2c(c1)OCCO2 (stereo not drawn) | inactive
O=C1CC2(CCCC2)C(=O)N1c1ccc(S(=O)(=O)NCC2CC2)cc1Cl | inconclusive [activator, single point]
CC(C)(C)c1ccc(/C=C2\Oc3c(ccc(O)c3CN3CCN(CCO)CC3)C2=O)cc1 | inconclusive [activator, single point]
N#Cc1cn(CCCOc2ccccc2)c2ccccc12 | inconclusive [activator, single point]
Cc1ccc(S(=O)(=O)N2CCN(Cc3cccnc3)CC2)cc1 | inconclusive [activator, single point]
O=c1cc(-c2ccccc2)oc2ccc(Br)cc12 | inconclusive [activator, partial curve, poor fit]
Cc1ccccc1N1CCN(S(=O)(=O)CC23CCC(CC2=O)C3(C)C)CC1 (stereo not drawn) | inconclusive [activator, full curve, poor fit]
CC1CC1c1ccc(/C=C(\C#N)C(=O)Nc2ccc(Cl)cc2Cl)o1 (stereo not drawn) | active: 16.4 µM
CCN1CCN(S(=O)(=O)c2ccc(Cl)c(C(=O)N(C)CC(=O)Nc3c(C)cccc3C)c2)CC1 | inactive
CCC(=O)Nc1c(S(=O)(=O)c2ccc(C)cc2)c2nc3ccccc3nc2n1C(C)c1ccccc1 (stereo not drawn) | inconclusive [activator, single point]
COC(=O)C1=C(C)NC(=S)NC1c1ccc(-c2cc(Cl)ccc2Cl)o1 (stereo not drawn) | inconclusive [activator, single point]
Cc1cc(C)n(-c2nnc3n2N=C(c2ccccc2)CS3)n1 | inactive
COC(=O)c1cccc(NS(=O)(=O)c2ccc(OC)c(OC)c2)c1C | inactive
CC1CCN(C(=O)c2ccc(CNS(=O)(=O)c3ccc(C(C)(C)C)cc3)cc2)CC1 | inactive
COc1cccc2c1OC1(C)CC2N(C(=O)c2ccco2)C(=S)N1c1ccc(F)cc1 (stereo not drawn) | inconclusive [activator, single point]
O=C(O)c1cccc2c(-c3ccccc3)c(-c3ccccc3)[nH]c12 | inconclusive [activator, single point]
CC(OC(=O)c1cccc(-n2cnnn2)c1)C(=O)Nc1ccc(F)c(F)c1F (stereo not drawn) | inactive
CC(=O)O[C@@H]1C[C@H]2C(C)(C)C(=O)C=C[C@]2(C)[C@H]2CC[C@@]3(C)[C@H](c4ccoc4)OC(=O)[C@H]4O[C@]43[C@@]21C | inconclusive [activator, full curve, poor fit]
COCCCNC(=O)c1ccc2c(=O)n(Cc3ccccc3OC)c(=S)[nH]c2c1 | inactive

Compound | Potency
CCOC(=O)c1c(C)c(C(=O)N2CCN(c3ccccc3)CC2)c(C)n1C | inactive
O=C(CSCc1ccccc1)Nc1cc([N+](=O)[O-])ccc1F | inactive
CC(=O)NC(C1C(=O)CC(C)(C)CC1=O)(C(F)(F)F)C(F)(F)F | inconclusive [activator, partial curve, poor fit]
O=C(CCl)N(O)c1ccc(C=Cc2ccccc2)cc1 | inconclusive [activator, partial curve, poor fit]
S=C(Nc1cccc(Cl)c1)NC1CCCCC1 | inactive
O=[N+]([O-])c1cc([N+](=O)[O-])c2c(=Nc3ccccc3)n(-c3ccccc3)n(O)c2c1 | inconclusive [activator, partial curve, poor fit]
O=C(NCCCN1CCN(Cc2ccccc2)CC1)C1CCN(c2nnc(-n3cccc3)s2)CC1 | inactive
CCN1C(=O)[C@H]2[C@H]3[C@H](O)[C@H](O)C/C(=N\OC[C@@H](C)[C@H](OCc4ccccc4)C(C)C)[C@@H]3CC[C@H]2C1=O | inconclusive [activator, full curve, poor fit]
COc1ccc(NC(=O)Nc2cc3oc4ccccc4c3cc2OC)cc1 | inconclusive [activator, single point]
CC(C)(C)c1nc(-c2ccccc2)nc2c1OCCC2 | active: 25.9 µM
CCc1nc2sc3c(c2c(=O)n1NC(=O)CCl)CCCC3 | inconclusive [activator, single point]
Cc1cccc(-n2ncc(Cl)c(Cl)c2=O)c1 | active: 3.26 µM
CCOC(=O)c1c(NC(=O)C2CCCO2)sc2c1CCC2 (stereo not drawn) | inconclusive [activator, partial curve]
COc1cccc(/C=C2\SC(=S)N(CCC(=O)NCCc3ccc(O)cc3)C2=O)c1 | inconclusive [activator, single point]
Cc1ccc(S(=O)(=O)c2cc3ccc(O)cc3oc2=O)cc1C | active: 2.31 µM
O=C(O)CCc1ccc(NCc2cccc(Oc3ccccc3)c2)cc1 | inconclusive [activator, partial curve, poor fit]
Cc1ccccc1C(=O)NCCCNC(=O)c1ccccc1C | inconclusive [activator, single point]
CN(c1ccc(C(=O)NCCSC(C)(C)C)cc1)S(=O)(=O)c1ccccc1 | inconclusive [activator, single point]
CCOC(=O)CSc1nnc(CSc2nc3ccccc3c(=O)[nH]2)n1-c1ccccc1 | inconclusive [activator, full curve, poor fit]
O=C(/C=C/c1cccnc1)c1ccc(F)c(F)c1 | inconclusive [activator, single point]
Cc1onc(-c2ccccc2)c1CNC(=O)Nc1cccc(Cl)c1 | inconclusive [activator, partial curve, poor fit]
